In PubChem BioAssay AID485294 (National Center for Advancing Translational Sciences (NCATS), 2010):
Hit rate of the full screen: of about 370,000 compounds, about 150 (0.041%) were called active. This list was built around the results that the source calls inconclusive (neither active nor inactive); the mix of calls is not that of the screen. Calls follow the shape of the dose curve; as a rule, active = well fitted inhibition curve with a large enough effect; inconclusive = small, poorly fitted or top-dose-only effect; inactive = flat fitted curve, though single readings scatter. Potencies of inconclusive entries are left out as doubtful fits.

molecular target: Beta-lactamase (Escherichia coli (strain K12)) (UniProt P00811); assay: qHTS Inhibitors of AmpC Beta-Lactamase (assay with detergent); details: AmpC hydrolysis of nitrocefin, absorbance 480 nm, 0.01% Triton; activity change, negative = inhibition: at 114 µM (top of the series); also: nearly all actives have a fitted effect of over 25% in size;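 as to activity change, negative = inhibition: 0% = no-compound wells and -100% = no-enzyme wells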
Chain of UniProt P00811 (P00811 whole entry, looked up): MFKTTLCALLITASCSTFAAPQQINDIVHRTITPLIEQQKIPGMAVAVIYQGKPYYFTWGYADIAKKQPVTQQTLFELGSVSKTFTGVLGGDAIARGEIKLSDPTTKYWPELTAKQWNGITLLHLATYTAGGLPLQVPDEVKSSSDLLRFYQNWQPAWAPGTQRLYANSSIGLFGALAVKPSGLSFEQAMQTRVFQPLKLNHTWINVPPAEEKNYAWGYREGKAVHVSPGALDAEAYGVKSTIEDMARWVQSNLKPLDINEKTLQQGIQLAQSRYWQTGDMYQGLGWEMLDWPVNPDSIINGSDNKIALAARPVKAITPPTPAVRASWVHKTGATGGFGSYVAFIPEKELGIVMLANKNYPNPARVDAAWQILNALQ
Procedure, shortened: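 20 mM phosphate pH 7.0 + 0.01% (detergent screen) or 0.0001% Triton X-100; 5.3 nM AmpC reagent; cpd preinc 15 min RT; nitrocefin (800 uM stock) to start; A480 q20 s × 4 min; Activity was normalised to no-enzyme and no-compound control wells.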
Potency is read from the fitted curve at half-maximal effect; tags tell the direction and shape of the fitted curve.

SMILES | Potency | activity change, negative = inhibition
CC(C)COc1cccc(C(=O)NNC(=O)C2COc3ccccc3O2)c1 (stereo not given) | inconclusive [inhibitor, partial curve] | –
CC(C)c1ccc(-c2nnc3n(CCc4ccccc4)c(=O)c4ccccc4n23)cc1 | – | inactive: 23.1%
CCN(CC)c1ccc(NC(=O)CSc2nc3ccccc3c(=O)[nH]2)cc1 | inconclusive [inhibitor, single point] | –
COc1cc(/C=C/c2nc3ccccc3c(=O)[nH]2)cc(Cl)c1O | – | inactive: -12.5%
CC(=O)c1ccc(NS(=O)(=O)c2cc(-c3cc(C)no3)ccc2C)cc1 | – | inactive: 9.63%
CCOC(=O)C1CCN(C(C)C(=O)c2c[nH]c3ccccc23)CC1 (stereo not given) | – | inactive: 2.27%
Cc1ccccc1N1CCN(C2CCCN(C(=O)c3cc(C(C)C)[nH]n3)C2)CC1 (stereo not given) | inconclusive [inhibitor, full curve, poor fit] | –
CCN(CC(=O)Nc1c(F)cccc1F)C(=O)C1Cc2ccccc2CN1S(=O)(=O)CC (stereo not given) | inconclusive [inhibitor, full curve, poor fit] | –
CCCn1c(=O)c(C(=O)NCc2ccc3c(c2)OCO3)c(O)c2ccccc21 | inconclusive [inhibitor, full curve, poor fit] | –
C=CCN1C(=O)c2ccc(C(=O)OCC(=O)N3CCN(c4ccccc4)CC3)cc2C1=O | inconclusive [inhibitor, full curve, poor fit] | –
O=C(OCCc1cc2ccccc2c(=O)o1)c1cccc(Br)c1 | – | inactive: -9.5%
Cc1ccsc1C(=O)OCC(=O)NC1CCS(=O)(=O)C1 (stereo not given) | inconclusive [inhibitor, single point] | –
CCS(=O)(=O)c1ncc(N(Cc2ccco2)Cc2sccc2C)c(C(=O)Nc2ccc(C)cc2C)n1 | – | inactive: 18.2%
Clc1ccccc1OCCCCN1CCNCC1 | inconclusive [inhibitor, full curve, poor fit] | –
C=C(C)COc1ccc(-c2ncnc(C(F)(F)F)c2-c2ccc(OC)cc2)c(O)c1 | – | inactive: 0.749%
Cc1ccccc1-c1nnc(SCC(=O)N2CCCC2)o1 | inconclusive [inhibitor, full curve, poor fit] | –
COc1cccc(C=Nc2ccccc2C(=O)Nc2ccccc2)c1O | – | inactive: -9.8%
Fc1ccccc1OCCCn1ccnc1 | inconclusive [inhibitor, full curve, poor fit] | –
CCOC(=O)C(NC(C)=O)C(OC(C)=O)c1cccc(N(CCO)CCO)c1 (stereo not given) | – | inactive: -7.61%
Cn1c(=O)[nH]c(=O)c2c1nc(SCC(=O)O)n2Cc1ccccc1 | – | inactive: 3.81%
CCOC(=O)C1CCN(C(=O)C2(NC(=O)Nc3ccccc3C)CCCCC2)CC1 | inconclusive [inhibitor, single point] | –
Cc1csc(=O)n1CC(=O)OCC(=O)Nc1cc(Cl)ccc1[N+](=O)[O-] | inconclusive [inhibitor, full curve, poor fit] | –
CCn1c(=O)c2cc(C(=O)N3CCOCC3)sc2c2ccccc21 | inconclusive [inhibitor, partial curve, poor fit] | –

SMILES | Potency | activity change, negative = inhibition
COc1ccc(OCc2cc(C(=O)NC3CCOC(C)(C)C3)no2)c2ccccc12 (stereo not given) | – | inactive: -0.739%
CCCCC[C@H]1CN(Cc2ccc(OC)cc2)C(=O)[C@@H]1CC(=O)NCc1ccccc1 | inconclusive [inhibitor, partial curve] | –
O=c1cccc2n1C[C@@H]1C[C@@H]2CN(CC(O)c2ccc([N+](=O)[O-])cc2)C1 (stereo not given in full) | inconclusive [inhibitor, full curve, poor fit] | –
CC1=C(C(=O)Nc2ccc(C)cc2C)C(c2ccc(O)cc2)n2nnnc2N1 (stereo not given) | – | inactive: 2.37%
Cc1ccc(N2C(=O)N(CC(=O)NCc3ccccc3Cl)C(=O)C2C)cc1 (stereo not given) | inconclusive [inhibitor, partial curve, poor fit] | –
Cc1ccc(C)c(NS(=O)(=O)c2cc(C(=O)Nc3ccccc3-c3ccccc3)ccc2Cl)c1 | inconclusive [inhibitor, partial curve] | –
COc1ccc(/C=N/N=C2\SCC(=O)N2c2c(C)n(C)n(-c3ccccc3)c2=O)cc1OC | inconclusive [inhibitor, full curve] | –
O=[N+]([O-])c1cc(/C=N/N2CCCCC2)ccc1Cl | – | inactive: -1.61%
O=C(c1ccco1)N1CCN(c2ncnc3c2[nH]c2ccc(Br)cc23)CC1 | inconclusive [inhibitor, partial curve, poor fit] | –
Cn1c(=O)n(C)c2cc([N+](=O)[O-])c(N3CCN(S(=O)(=O)c4ccc(C(C)(C)C)cc4)CC3)cc21 | – | inactive: -13.8%
COc1ccc(NC(=O)CN2C(=O)COc3ccc(S(=O)(=O)Nc4ccccc4)cc32)cc1 | – | inactive: 12.8%
Cc1nc2ccc(NC(=O)NCCCO)cc2s1 | inconclusive [inhibitor, full curve] | –
Cc1ccc(C(=O)OCC(=O)N2C(C)CCCC2C)s1 (stereo not given) | inconclusive [inhibitor, full curve, poor fit] | –
CCOc1cc(C2C3=C(CC(C)(C)CC3=O)N(CCOC)C3=C2C(=O)CC(C)(C)C3)ccc1OC | inconclusive [inhibitor, full curve, poor fit] | –
CCOc1cc2[nH]c(=S)n(CCCN3CCOCC3)c(=O)c2cc1OCC | – | inactive: -3.34%
CCCc1cc(-c2[nH]ncc2-c2ccc3c(c2)OCCCO3)c(O)cc1O | – | inactive: -4.33%
CCOc1ccc(NC(=O)NCCCn2c(C)nc3cc(C)c(C)cc32)cc1 | inconclusive [inhibitor, single point] | –
CCOc1ccc(C(=O)/C=C/c2ccc(SC)cc2)cc1 | – | inactive: -1.16%
CCC(C)Oc1cccc(OCCCCN2C(=O)NC(C)(C)C2=O)c1 (stereo not given) | inconclusive [inhibitor, full curve, poor fit] | –
Cc1ccc(O)c(CP(=O)(c2ccccc2)c2ccccc2)c1 | – | inactive: -7.67%
Cc1c(Cl)cccc1NC(=O)Nc1cccnc1 | inconclusive [inhibitor, full curve] | –
CSCCC(NC(=O)c1ccc(C)o1)C(=O)O (stereo not given) | inconclusive [inhibitor, single point] | –
